Test results taken from PubChem BioAssay AID1347165 (National Center for Advancing Translational Sciences (NCATS), 2019).
Out of some 220,000 compounds screened, about 5,700 (2.6%) were called active. The inconclusive results got no clear call from the source; some entries with a clear call stand among them for comparison. Calls come from the whole dose curve; as a rule, active = well fitted inhibition curve with a large enough effect; inconclusive = small, poorly fitted or top-dose-only effect; inactive = no such curve, though single readings can be large or run the other way. Where the call is inconclusive, the potency comes from a doubtful curve fit.

target: Lysine-specific demethylase 5B (Homo sapiens) (UniProt Q9UGL1); assay: Primary screen for KDM5B Histone Demethylases FDH-coupled qHTS; conditions: FDH-coupled NADH fluorescence (FDH is formaldehyde dehydrogenase); activity change, negative = inhibition: at 57.7 µM (top of the series) unless noted; note: nearly all actives have a fitted effect of over 70% in size; for activity change, negative = inhibition: 0% is about no effect
UniProt Q9UGL1, sequence (Q9UGL1 whole entry, looked up): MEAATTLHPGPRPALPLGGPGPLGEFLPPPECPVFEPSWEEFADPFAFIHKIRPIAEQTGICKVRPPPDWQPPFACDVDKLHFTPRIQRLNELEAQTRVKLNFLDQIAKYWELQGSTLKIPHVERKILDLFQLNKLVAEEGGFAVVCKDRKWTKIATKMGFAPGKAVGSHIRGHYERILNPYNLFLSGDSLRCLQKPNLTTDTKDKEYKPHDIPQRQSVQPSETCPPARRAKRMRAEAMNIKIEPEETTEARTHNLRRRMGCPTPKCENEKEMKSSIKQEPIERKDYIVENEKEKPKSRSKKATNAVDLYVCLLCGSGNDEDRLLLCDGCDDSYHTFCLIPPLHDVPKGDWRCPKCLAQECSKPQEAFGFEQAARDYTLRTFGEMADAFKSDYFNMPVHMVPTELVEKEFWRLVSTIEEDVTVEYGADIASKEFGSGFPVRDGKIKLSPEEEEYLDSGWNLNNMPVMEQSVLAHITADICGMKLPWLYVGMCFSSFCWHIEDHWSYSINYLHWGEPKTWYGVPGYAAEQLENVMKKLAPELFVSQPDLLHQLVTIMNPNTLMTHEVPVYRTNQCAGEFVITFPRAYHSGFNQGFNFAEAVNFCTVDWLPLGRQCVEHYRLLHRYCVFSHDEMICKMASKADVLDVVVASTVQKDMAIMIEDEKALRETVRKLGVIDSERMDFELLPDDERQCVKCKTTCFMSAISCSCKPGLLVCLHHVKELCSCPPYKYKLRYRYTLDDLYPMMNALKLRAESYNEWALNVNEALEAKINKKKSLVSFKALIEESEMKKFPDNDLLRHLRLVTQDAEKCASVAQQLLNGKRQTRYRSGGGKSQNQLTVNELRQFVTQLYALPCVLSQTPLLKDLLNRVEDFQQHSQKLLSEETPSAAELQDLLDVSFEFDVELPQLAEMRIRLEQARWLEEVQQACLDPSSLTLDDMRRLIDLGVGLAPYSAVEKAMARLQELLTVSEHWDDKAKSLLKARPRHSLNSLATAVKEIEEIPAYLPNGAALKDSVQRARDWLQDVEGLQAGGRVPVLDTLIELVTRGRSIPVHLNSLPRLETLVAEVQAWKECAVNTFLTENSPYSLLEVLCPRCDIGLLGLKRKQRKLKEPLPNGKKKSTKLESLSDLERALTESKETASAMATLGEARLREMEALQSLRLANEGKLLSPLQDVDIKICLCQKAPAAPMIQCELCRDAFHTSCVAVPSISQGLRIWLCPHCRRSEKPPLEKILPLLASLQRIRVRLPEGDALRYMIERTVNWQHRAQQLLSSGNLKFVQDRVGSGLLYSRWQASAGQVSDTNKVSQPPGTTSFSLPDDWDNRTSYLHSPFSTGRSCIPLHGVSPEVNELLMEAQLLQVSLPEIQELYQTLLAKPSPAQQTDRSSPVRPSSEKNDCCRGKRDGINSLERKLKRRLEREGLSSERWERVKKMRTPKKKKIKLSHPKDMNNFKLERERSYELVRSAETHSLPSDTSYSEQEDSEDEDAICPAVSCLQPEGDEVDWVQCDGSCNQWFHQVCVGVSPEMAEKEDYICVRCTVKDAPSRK
Summary of the method: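 qHTS format, multiple compound concentrations. Buffer 50 mM HEPES pH 7.5/0.01% Tween-20; 200 nM KDM5BΔAP final; 10 min compound preincubation; substrate-mix levels 12.5 µM peptide, 25 µM α-KG, 0.25 mM NAD⁺; 30 min RT; ΔRFU.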
Potency is the fitted concentration of half-maximal effect; tags give direction and shape of the fitted curve.

Question: COc1ccc(-c2nc(C)nc3c2CN(C(=O)c2ccc(F)cc2)CC3)cc1 was tested. Which Potency did it give?
Answer: inconclusive: 20 µM [inhibitor, partial curve, poor fit]

Question: For O=C(NCc1ccccc1)c1nn(-c2ccccc2)nc1CO, which Potency is on record?
Answer: inconclusive: 31.6 µM [inhibitor, partial curve, poor fit]

Question: How did the Potency turn out when CCCCNC1C2CC3CC1CC(C2)C3NCCCC (stereo not drawn) was run?
Answer: inconclusive: 20 µM [inhibitor, partial curve, poor fit]

Question: Which Potency does the source give for O=C(NCc1ccc(F)cc1)c1cc2c(=O)n3ccccc3nc2s1 here?
Answer: inconclusive: 2.82 µM [inhibitor, partial curve, poor fit]

Question: Cc1cc(C)cc(NS(=O)(=O)c2ccc3[nH]cc(C(=O)N(C)Cc4ccccc4)c(=O)c3c2)c1 was tested. Which Potency did it give?
Answer: inconclusive: 17.8 µM [inhibitor, partial curve, poor fit]

Question: For CCN1CCOC(=O)C1CC(=O)Nc1cc(C)cc(C)c1 (stereo not drawn), which activity change, negative = inhibition is on record?
Answer: inconclusive: -50.4% [inhibitor]

Question: With CC1Oc2ccc(NS(=O)(=O)c3cccc(Cl)c3)cc2CN(Cc2ccccc2Cl)C1=O (stereo not drawn) as the compound, how does the Potency read?
Answer: inconclusive: 17.8 µM [inhibitor, partial curve, poor fit]

Question: How did the Potency turn out when CN(C)C[C@@H]1CN(c2ccncn2)C[C@H]1NC(=O)c1ccc2c(c1)OCO2 was run?
Answer: inconclusive: 39.8 µM [inhibitor, partial curve, poor fit]

Question: With CCOc1ccccc1NC(=O)CN1C(=O)CC(c2ccc(OC)c(OC)c2)Sc2ccccc21 (stereo not drawn) as the compound, how does the Potency read?
Answer: inconclusive: 17.8 µM [inhibitor, single point]

Question: O=C1Nc2ccccc2C12CN(Cc1ccc3ccccc3c1)C2 was tested. Which Potency did it give?
Answer: inconclusive: 79.4 µM [inhibitor, partial curve, poor fit]

Question: For COc1ccc2[nH]cc(CCNC(=O)c3cccc(F)c3F)c2c1, which “activity change, negative = inhibition” value is on record?
Answer: inactive: 3.59%

Question: Which Potency does the source give for O=C(c1nc(-c2ccc(Cl)cc2Cl)c2cnccn12)N1CCN(c2ncccn2)CC1 here?
Answer: inconclusive: 3.55 µM [inhibitor, full curve, poor fit]

Question: COc1ccc(Cl)cc1NC(=O)CCC1CCCN(c2nc(C)cc(C)n2)C1 (stereo not drawn) was tested. Which Potency did it give?
Answer: inconclusive: 28.2 µM [inhibitor, partial curve, poor fit]

Question: Which Potency does the source give for c1coc(CN2CCc3c(sc4ncnc(N5CCOCC5)c34)C2)c1 here?
Answer: inconclusive: 17.8 µM [inhibitor, partial curve, poor fit]

Question: Which Potency does the source give for Fc1ccc(CN2Cc3[nH]cnc3C[C@H]2c2nc(-c3ccc(Cl)cc3)no2)cc1 here?
Answer: inconclusive: 28.2 µM [inhibitor, single point]

Question: Which “activity change, negative = inhibition” value does the source give for O=C(NCCc1ccccc1)C1CC(=O)N(c2n[nH]c3cccc(F)c23)C1 (stereo not drawn) here?
Answer: inactive: -23.3%

Question: Which Potency does the source give for COc1ccc(-c2nc(C(=O)N3CCN(c4ccc(C(C)=O)cc4)CC3)cs2)cc1OC here?
Answer: inconclusive: 31.6 µM [inhibitor, single point]

Question: How did the “activity change, negative = inhibition” value turn out when CC(NC(=O)c1ccco1)C(=O)Nc1nc(-c2ccc3ccccc3c2)cs1 (stereo not drawn) was run?
Answer: inactive: -32.3%

Question: Which Potency does the source give for O=C(Nc1ccc(-c2nc3ccccc3o2)cc1)c1cccc(F)c1 here?
Answer: inconclusive: 2 µM [inhibitor, full curve, poor fit]

Question: With COc1ccc(Cc2nc3c4c(C)c(C)n(CCN(C)C)c4ncn3n2)cc1OC as the compound, how does the Potency read?
Answer: inconclusive: 35.5 µM [inhibitor, partial curve, poor fit]

Question: Cc1ccc(NC(=O)C(=O)NCc2ccco2)cc1 was tested. Which Potency did it give?
Answer: inconclusive: 20 µM [inhibitor, partial curve, poor fit]

Question: Cc1ccc(C)c(CN2C(=O)c3ccccc3S(=O)c3ccc(C(=O)N4CCN(c5cccc(Cl)c5)CC4)cc32)c1 (stereo not drawn) was tested. Which Potency did it give?
Answer: inconclusive: 14.1 µM [inhibitor, partial curve, poor fit]

Question: For O=c1cc(-c2ccccc2)n2c(SCc3c(F)cccc3Cl)nnc2[nH]1, which Potency is on record?
Answer: inconclusive: 28.2 µM [inhibitor, partial curve, poor fit]

Question: CCc1c(C)c(C#N)c2nc3ccccc3n2c1NCCOC was tested. Which Potency did it give?
Answer: inconclusive: 22.4 µM [inhibitor, single point]

Question: How did the “activity change, negative = inhibition” value turn out when O=C(c1ccccc1Cl)N1CCc2nc(-c3ccc(Cl)cc3)nc(-c3ccccc3)c2C1 was run?
Answer: inactive: 0.392%

Question: How did the “activity change, negative = inhibition” value turn out when COCCN1C[C@]23C=C[C@H](O2)C(C(=O)N(C)Cc2cnccn2)C3C1=O (stereo partly drawn) was run?
Answer: inactive: 14%

Question: Which “activity change, negative = inhibition” value does the source give for O=C(Nc1ccc(F)cc1F)C1CC2CCC1C2 (stereo not drawn) here?
Answer: inactive: 14.5%

Question: Which Potency does the source give for CC1(CNc2ccccc2)COc2ccc(C(=O)NCCc3ccccc3)cc2N1 (stereo not drawn) here?
Answer: inconclusive: 35.5 µM [inhibitor, single point]

Question: With CCc1cc(=O)oc2c(C)c(OCC(=O)NCCCN(C)C)ccc12 as the compound, how does the Potency read?
Answer: inconclusive: 22.4 µM [inhibitor, partial curve, poor fit]

Question: How did the “activity change, negative = inhibition” value turn out when CC(=O)N(Cc1ccco1)CC1C(C)C=C(C)CC1C (stereo not drawn) was run?
Answer: inactive: 10.5%

Question: O=[N+]([O-])c1cc(S(=O)(=O)Nc2ccccc2)ccc1N/N=C/c1sc(Nc2ccccc2)nc1Cl was tested. Which “activity change, negative = inhibition” value did it give?
Answer: inactive: 7.43%

Question: With CCCn1c(=NC(=O)c2cc3ccccc3o2)c(C(=O)OCC)cc2c(=O)n3ccccc3nc21 as the compound, how does the Potency read?
Answer: inconclusive: 28.2 µM [inhibitor, partial curve, poor fit]

Question: With COc1ccc(Nc2oc(/C=C/c3cccc(OC)c3)nc2C#N)cc1 as the compound, how does the Potency read?
Answer: inconclusive: 25.1 µM [inhibitor, partial curve, poor fit]

Question: CCOc1cccc(CN2CC[C@@](C)(O)[C@H](N3CCCC3)C2)c1 was tested. Which Potency did it give?
Answer: inconclusive: 28.2 µM [inhibitor, partial curve, poor fit]

Question: CCN(Cc1ccccc1)S(=O)(=O)c1ccc(S(N)(=O)=O)cc1 was tested. Which “activity change, negative = inhibition” value did it give?
Answer: inactive: -6.53%

Question: CCOCC1(C)COc2ccc(C(=O)Nc3cccc(Cl)c3)cc2N1 (stereo not drawn) was tested. Which Potency did it give?
Answer: inconclusive: 28.2 µM [inhibitor, partial curve, poor fit]

Question: CCCCN(CC)CCNC(=O)C1CCCN(S(=O)(=O)c2cccc3nsnc23)C1 (stereo not drawn) was tested. Which activity change, negative = inhibition did it give?
Answer: inconclusive: -36.3% [inhibitor]

Question: O=C(c1cc(C2CC2)nc2onc(C3CCNC3)c12)N1CCCCC1 (stereo not drawn) was tested. Which Potency did it give?
Answer: inconclusive: 28.2 µM [inhibitor, full curve]

Question: COc1cc(NC(=O)Cn2c(N(C)Cc3ccccc3)nc(C)cc2=O)cc(OC)c1 was tested. Which Potency did it give?
Answer: inconclusive: 28.2 µM [inhibitor, single point]

Question: For O=C1NCCCc2[nH]c(-c3cnn(-c4ccc(F)cc4)c3)nc21, which Potency is on record?
Answer: inconclusive: 22.4 µM [inhibitor, partial curve, poor fit]

Question: COc1ccc(-c2ccnc(N[C@H]3CO[C@H]4[C@@H]3OC[C@@H]4NC(=O)N3CCOCC3)n2)cc1 was tested. Which Potency did it give?
Answer: inconclusive: 28.2 µM [inhibitor, single point]

Question: Which Potency does the source give for N#Cc1ccccc1CN1CCCC(C(=O)NCc2ccccc2)CCNC(=O)CC1 (stereo not drawn) here?
Answer: inconclusive: 20 µM [inhibitor, single point]

Question: Which Potency does the source give for COc1cc(F)ccc1-c1cc(-c2c(C)noc2C)cc2c1C(=O)N(C)C2=O here?
Answer: inconclusive: 56.2 µM [inhibitor, single point]

Question: How did the “activity change, negative = inhibition” value turn out when COc1ccc(C(=O)N2CCc3nc(-c4ccccc4)nc(-c4ccc(OC)cc4)c3C2)cc1 was run?
Answer: inactive: 44%

Question: With N#CCCC(CCC#N)C1=NCCc2ccccc21 as the compound, how does the Potency read?
Answer: inconclusive: 35.5 µM [inhibitor, single point]

Question: Which Potency does the source give for CC(=O)N[C@H]1CO[C@H]2[C@@H]1OC[C@@H]2Nc1nccc(-c2cccc(F)c2)n1 here?
Answer: active: 35.5 µM

Question: With O=C1NCCCCCCN(Cc2ccc3c(c2)CCO3)[C@H]2CCC[C@@H]12 as the compound, how does the Potency read?
Answer: inconclusive: 10 µM [inhibitor, partial curve, poor fit]

Question: With CC(C)(C)NC(=O)CN1CCN(c2cccc(F)c2C#N)CC1 as the compound, how does the Potency read?
Answer: inconclusive: 22.4 µM [inhibitor, partial curve, poor fit]

Question: With O=c1[nH]c(C2CCCN(Cc3ccccn3)C2)nn1-c1ccccc1 (stereo not drawn) as the compound, how does the Potency read?
Answer: active: 22.4 µM

Question: How did the Potency turn out when Cc1nc(N(C)C)ncc1C(=O)N[C@@H]1CCNC[C@H]1O was run?
Answer: active: 14.1 µM

Question: For Cc1ccc(-n2nc3c(N4CCC(C(=O)NCc5ccccc5Cl)CC4)nnc(C)c3c2C)cc1, which Potency is on record?
Answer: inconclusive: 7.08 µM [inhibitor, partial curve, poor fit]

Question: Which “activity change, negative = inhibition” value does the source give for O=C(C(Sc1nncn1-c1ccccc1F)c1ccccc1)N1CCCCC1 (stereo not drawn) here?
Answer: inactive: 11.7%

Question: For CCCCNC(=O)C(C#N)c1nc2ccccc2nc1N1CCN(C(=O)OCC)CC1 (stereo not drawn), which Potency is on record?
Answer: inconclusive: 25.1 µM [inhibitor, partial curve, poor fit]

Question: COc1ccc(C(=O)Nc2ccc(C(=O)OCc3cc(=O)n4nc(C5CC5)sc4n3)cc2)cc1 was tested. Which Potency did it give?
Answer: inconclusive: 25.1 µM [inhibitor, single point]

Question: With Cc1ccc(NC(=O)C=C2CCCCC2)cc1 as the compound, how does the “activity change, negative = inhibition” value read?
Answer: inactive: 9.52%

Question: O=C(N[C@@H]1CCC[C@@H]1C(=O)N1CCN(c2ncccn2)CC1)c1ccncc1 was tested. Which “activity change, negative = inhibition” value did it give?
Answer: inactive: -26.7%

Question: For O=C(Cc1cccn1-c1ccc(F)cc1)N1CCCCC1, which Potency is on record?
Answer: inconclusive: 17.8 µM [inhibitor, single point]

Question: Which Potency does the source give for COc1ccc(CCNC(=O)CCCCn2c(=O)c3ccccc3n(Cc3ccccc3Cl)c2=O)cc1OC here?
Answer: inconclusive: 1 µM [inhibitor, partial curve, poor fit]

Question: Cc1ccccc1C(=O)N1CCCN(c2cc(-c3ccc(Cl)cc3)[nH]n2)CC1 was tested. Which Potency did it give?
Answer: inconclusive: 14.1 µM [inhibitor, partial curve]

Question: Cc1cc(=O)n(CC(=O)Nc2cc(Cl)ccc2C)c(N2CCc3ccccc3C2)n1 was tested. Which Potency did it give?
Answer: inconclusive: 39.8 µM [inhibitor, single point]

Question: With Cc1ccc(-c2cc(C(=O)OCC(=O)NCC(C)C)c3ccccc3n2)o1 as the compound, how does the Potency read?
Answer: inconclusive: 22.4 µM [inhibitor, partial curve, poor fit]

Question: With O=C(c1cc(-c2cnccc2Cl)c2cccn2n1)N1CCOCC1 as the compound, how does the “activity change, negative = inhibition” value read?
Answer: inactive: 2.79% [at 149 µM]

Question: With CCn1cc2c(n1)-c1c(oc(C(=O)Nc3cccc(C(F)(F)F)c3)c1C)CC2 as the compound, how does the Potency read?
Answer: inconclusive: 35.5 µM [inhibitor, partial curve, poor fit]
